# Measurements: the supplement of paper PMC11417369
# ± gives the standard deviation of the averaged measurements. The list shows a part of the results.
# Tested on: PfAP2-G AP2 domain (GST-tagged)
# Assay: gcPBM binding intensity (ln(normalized median fluorescence intensity)); higher = stronger DNA binding
# Method in brief: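 After 1 h on an Agilent 4 × 180k array of primer-extended double-stranded 36-bp intergenic genomic probes and negative controls, bound GST-tagged P. falciparum DNA-binding domains were detected with Alexa488 anti-GST antibody and scanned at 488 nm. The domains had been expressed in E. coli, and binding took place in 1× PBS with 1% milk, 0.2 mg/ml BSA, 0.5% salmon testes DNA and 0.03% Triton X-100. Binding intensity is the highest Masliner-normalised natural-log median intensity across replicate spots of either probe orientation.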
row,Sequence,gcPBM binding intensity (ln)
1,GTAATTATACATATTACACACTCTCTTGATCTTTTT [CACACA_site7756],9.86 ± 0.13
2,TATATAAAGAAACACACACACACCTTATAATTATTA [CACACA_site4062],10.01 ± 0.071
3,TGTTGATTTATCCTGTGTACGGATATATATCTTTCA [XGTACX_site7826],11.1 ± 0.78
4,TAAAGAATATTATAAACACACACTTTATAAAGAATT [CACACA_site114],9.875 ± 0.078
5,TTCTATTTATATGTGGGTACTAATTTTTTTTCTTTT [XGTACX_site7104],11.1 ± 0.64
6,CTTAAATTAATTTGGGTGCATATATTTGTACACATT [GTGCAC_site9948],11.5 ± 1
7,TCCTTATTTCATATTTTTAAATAATACAAAAAAAAA [CACACA_negctrl_site773],9.87 ± 0.38
8,GAATATTAAATATTATCACACACATAATTATTTCCA [CACACA_site8730],9.88 ± 0.15
9,ATATATATTTATAATCGTACGTACCTAACAATACAA [XGTACX_site4510],11.3 ± 0.77
10,AAATAAAAAAAAGCCTGTACATGTTCATAAATTTTT [XGTACX_site7925],10.9 ± 0.5
11,TATTAATTTTTTTTTTTTTTTTTTTTTTTTTTTTTT [CACACA_negctrl_site1329],11 ± 0.61
12,GTTATAAATAATAAATAAATAATCAAATGAAGAATG [CACACA_negctrl_site653],9.87 ± 0.11
13,TGAATAAAATATTATACACACATATGTATATAACAT [CACACA_site974],9.94 ± 0.071
14,TTAATTTTTTTTTAAACACACATTTTTTTATTTAAG [CACACA_site2738],9.91 ± 0.028
15,TATGCAATAAAATATACACACAATATACTTATATAT [CACACA_site7691],9.805 ± 0.064
16,TTTATTTTCCAAAGGGTGCACATAGTTAAAACGATA [GTGCAC_site9855],10.8 ± 0.86
17,AGGAGGATAGTTCACAGTACCCAGGAAATCTGCGGA [XGTACX_site4928],10.7 ± 0.4
18,GCTATAAATATAATCACACATAAATATATAATATAT [CACACA_site5144],9.765 ± 0.035
19,ATAAATATACCAATCGGTACACATTTATACAAACAA [XGTACX_site7484],11 ± 0.64

row,Sequence,gcPBM binding intensity (ln)
1,AATAAATACACATACACACACGACGCTAGTATATGT [CACACA_site6627],10 ± 0.16
2,AGAATAAATATGTGGTGTTATAGTATTAATGTTAAT [TGCATGCA_negctrl_site62],10 ± 0.099
3,AACAGGTCATAATTTACACACTATATATTTTATTAT [CACACA_site670],10.1 ± 0.11
4,TAACATATGGGACACACATGCAACTGTTATATGTCC [TGCATGCA_site959],10.8 ± 0.21
5,AGAAAACATATGTTTTGTACTTAAGAAAAAAAAAAA [XGTACX_site4231],11 ± 0.68
6,ATCTATATTCATAATACACACATTCTGTAGCATTAT [CACACA_site7058],10.02 ± 0.035
7,TGATTAATTTTTAAATGTACTTAAAAATATACTTAT [XGTACX_site2872],11.2 ± 0.93
8,TATATCATATAAAACCGTACATACATACTTAATTGT [XGTACX_site6822],10.9 ± 0.59
9,AAAAAAAAATTAAAATGTACACATAAAAAAAAAAAA [XGTACX_site794],11.3 ± 0.81
10,AAAAATAAATAAATATGTACATATATACATATATAT [XGTACX_site5892],11 ± 0.51
11,TTTTATATGTTATATACACACATATAAATAAATATA [CACACA_site7418],9.915 ± 0.064
12,TGATGAAAATCTACATGAATGTTTTTATATCTATAT [GTGCAC_negctrl_site139],9.52 ± 0.2
13,TACAAATATATATGCACACACATATACATACAGATA [CACACA_site5238],10.1 ± 0.3
14,CATATATACGCATACACACACACACCCACACCCACA [CACACA_site1725],10.6 ± 0.52
15,GATAAAATCACTGGTGCATGTAGATATATAATATTA [TGCATGCA_site589],10.1 ± 0.17
16,ATATGCTTATTGTAAAGTACATTATTATTTTTCCTA [XGTACX_site5479],10.9 ± 0.54
17,AATTAACAAAAACACACACACACACCGACAAAAAAA [CACACA_site4444],10.2 ± 0.27
18,TATTTATACCTATACACACACACACGGATATTTATA [CACACA_site7123],10.3 ± 0.2
19,TATTTTGATTATTCAGTGTATAAATATATATATATA [CACACA_negctrl_site545],10 ± 0.34

row,Sequence,gcPBM binding intensity (ln)
1,ATGAATAAATAAGACACACACGAAAATAAGTAAAAA [CACACA_site4216],10.2 ± 0.13
2,TAAAAAAAAATATATAAACACACATATTTATATACA [CACACA_site8469],9.58 ± 0.14
3,AATATATTGTTTCCTGATATTAAATTCAATTTAATG [GTGCAC_negctrl_site22],9.93 ± 0.014
4,TAAAGAGAGACATCAACACACATACGTATGTATAGA [CACACA_site4896],9.99 ± 0.18
5,ATTTACCTATATATTTGTACTTACATAATGCTACCT [XGTACX_site2693],11.1 ± 0.57
6,CACGCATACAGACACACACACACACCGATATATATA [CACACA_site8113],10.3 ± 0.28
7,CATGAAAATATTATGTGTACTTAATGCACATTCAAA [XGTACX_site1952],11.3 ± 1
8,CCAATGTTTTCTTGTGTACACATCATTAAAGAAAAA [CACACA_site5300],11.6 ± 0.88
9,ATTCTATATGAAAAATGTACAAATAAAAATTCTAAG [XGTACX_site8900],10.9 ± 0.59
10,CTCTTCATATATAATTGTACACACAAAAACGACATT [XGTACX_site4287],11.4 ± 0.95
11,AAAAAAAAACAAAAAAGTACAAAATAAAAATACGTT [XGTACX_site4566],11.3 ± 0.83
12,CCTATCCATGCATATACACACATATCTATTTATATA [CACACA_site6886],10.1 ± 0.078
13,TATATATATTTTGGCTGTACATCAGCGTATATTTTT [XGTACX_site3233],10.8 ± 0.58
14,AATAAATATATACATTGTACATATATAATATATATA [XGTACX_site1458],10.9 ± 0.6
15,TAAATTATAATATGCACACAAAATGTTATATTAAAA [CACACA_site376],9.97 ± 0.26
16,ATGGATAATAAGTTTACACACAAAAAAAAAGAAAAA [CACACA_site861],10.1 ± 0.33
17,AAAAAAAAATTGTGTACACATAATTATATCATATGT [CACACA_site4500],11.7 ± 0.89
18,ATTAAATAAACCATTACACACTTTTATGTTTTGAAA [CACACA_site1143],9.995 ± 0.064
